Measurements: the supplement of paper PMC3334620
Whole data set: some 33,000 sequences, median “E-score (-0.5 to 0.5)” near -0.017, cut for the highest 2% near 0.3. This is one part of the list.

Target: T1, Sut1 (UniProt P53032)
T1 sequence: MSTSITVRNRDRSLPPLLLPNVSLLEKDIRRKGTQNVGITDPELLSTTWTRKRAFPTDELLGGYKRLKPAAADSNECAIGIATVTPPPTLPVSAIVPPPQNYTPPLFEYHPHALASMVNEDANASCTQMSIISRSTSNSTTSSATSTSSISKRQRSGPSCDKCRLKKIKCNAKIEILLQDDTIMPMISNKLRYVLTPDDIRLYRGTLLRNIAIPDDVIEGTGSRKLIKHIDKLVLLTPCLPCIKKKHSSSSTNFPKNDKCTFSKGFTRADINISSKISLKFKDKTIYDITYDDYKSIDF
Assay: PBM E-score (8-mer binding enrichment) (E-score (-0.5 to 0.5)); higher = stronger / more preferred TF binding; most listed sequences are background and not binding sites
Conditions: protein concentration: 200 nM; construct: GST-full length
How it was run: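 Detection of bound protein used fluorescent anti-GST, with scans normalised by masliner. The proteins were GST-tagged yeast transcription factors applied at about 100-200 nM to universal all-10-mer Agilent arrays made double-stranded by primer extension. Each ungapped eight-base word, pooled with its reverse complement, was scored with an E-score from the Universal PBM Analysis Suite.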

Going from TGGTCACA to GGGGAACC, the “PBM E-score” value falls from 0.0302 to -0.169.

Compared with TCGCAACA, ATTGACCA is higher in “PBM E-score” value: -0.128 for the first, -0.004 for the second.

Compared with GATTAGCA, CTGCCTCA is lower in “PBM E-score” value: 0.00891 for the first, -0.242 for the second.

First: GTTAAACA
Second: CGCTAATA
The “PBM E-score” value of the first is higher: 0.282 for the first, 0.0649 for the second.

Going from AGCCCCGC to GATGCCCC, the “PBM E-score” value falls from -0.145 to -0.308.

Compared with AAGTGGCA, AAACAAGT is higher in “PBM E-score” value: -0.166 for the first, 0.0919 for the second.

First: CTGGGGCC
Second: ACTACCGG
The “PBM E-score” value of the first is lower: -0.323 for the first, 0.0751 for the second.

Compared with GCAATGGA, GCAAGAAC is higher in “PBM E-score” value: -0.0742 for the first, 0.0471 for the second.

Going from CCAGCGCG to CATCGGTC, the “PBM E-score” value rises from -0.174 to -0.106.

Compared with TCAATTGA, GCGCCCGC is lower in “PBM E-score” value: 0.214 for the first, -0.405 for the second.

Going from GCGATCCC to AACTGAAA, the “PBM E-score” value rises from -0.182 to 0.221.

First: CTCTCGCA
Second: CCCAAGAC
The “PBM E-score” value of the first is lower: -0.173 for the first, -0.125 for the second.

Compared with CCTGACTC, CATCTTCA is lower in “PBM E-score” value: -0.13 for the first, -0.18 for the second.

Going from CAGAGATG to AGACCTTC, the “PBM E-score” value falls from -0.149 to -0.153.

Compared with GCCCATCA, GTATCAAC is higher in “PBM E-score” value: -0.314 for the first, 0.0399 for the second.

Compared with CAGGATTA, ACGACGAT is higher in “PBM E-score” value: -0.172 for the first, 0.189 for the second.

Going from CGAGCACC to CTTGGGCC, the “PBM E-score” value falls from -0.161 to -0.23.

Compared with AAATATGG, ATCAAGGG is lower in “PBM E-score” value: -0.0603 for the first, -0.102 for the second.

Going from ACTGAGAT to AGGGAACA, the “PBM E-score” value falls from -0.0119 to -0.222.

First: AACTAAAG
Second: TACGCATA
The “PBM E-score” value of the first is higher: 0.195 for the first, 0.129 for the second.

First: TATCGAAA
Second: CTTGTCGC
The “PBM E-score” value of the first is higher: 0.0439 for the first, -0.139 for the second.

First: AAACATTA
Second: CCCACAGG
The “PBM E-score” value of the first is higher: 0.24 for the first, -0.249 for the second.

First: CCGCTTAG
Second: TCTAACCA
The “PBM E-score” value of the first is lower: -0.039 for the first, 0.0509 for the second.

Compared with CGGCCGGA, CCTACAGC is lower in “PBM E-score” value: 0.275 for the first, -0.00274 for the second.

Compared with GCTCGCAC, AAGCACGG is lower in “PBM E-score” value: 0.0343 for the first, -0.00889 for the second.

Compared with TGAGGACA, AAGTCAAA is higher in “PBM E-score” value: -0.154 for the first, 0.128 for the second.

Compared with CCCTCACG, AATCGTGG is higher in “PBM E-score” value: -0.339 for the first, -0.0317 for the second.

Compared with AATTTTTG, ATCCAGTA is lower in “PBM E-score” value: 0.262 for the first, 0.00221 for the second.

Going from AGACGACG to GGGTTGAC, the “PBM E-score” value rises from -0.206 to -0.147.

Going from AAAAGGAG to GCATGCCC, the “PBM E-score” value falls from 0.0944 to -0.048.

Going from CCCTTGTA to CAGAGATC, the “PBM E-score” value rises from -0.119 to -0.0765.

Going from TCCGGGAA to GTGATTTA, the “PBM E-score” value falls from 0.356 to 0.101.

Going from TAGGCACA to ATGCCCTC, the “PBM E-score” value rises from -0.231 to -0.108.

First: GAGCTCGA
Second: CCTTTGTC
The “PBM E-score” value of the first is higher: 0.0102 for the first, -0.0868 for the second.

Compared with ATCATCGC, CTACAGAA is higher in “PBM E-score” value: 0.0155 for the first, 0.0324 for the second.

Compared with CAGAAATA, CTCCGAAG is higher in “PBM E-score” value: 0.161 for the first, 0.457 for the second.

First: AACGGCAC
Second: TATATGAA
The “PBM E-score” value of the first is lower: -0.0982 for the first, 0.162 for the second.

Going from GAGGTATA to ATAGTAGA, the “PBM E-score” value falls from 0.196 to 0.177.

First: ACGATGCA
Second: AGTATCTG
The “PBM E-score” value of the first is higher: 0.0229 for the first, -0.0411 for the second.

Going from ACTGTTGA to AGTCCGTC, the “PBM E-score” value rises from -0.0111 to 0.424.

Compared with AAGACACG, AGTACTAA is higher in “PBM E-score” value: 0.103 for the first, 0.119 for the second.

First: AAGTTCCT
Second: AGATTCCA
The “PBM E-score” value of the first is lower: -0.0213 for the first, 0.145 for the second.

Going from ATGTTCAA to CGAAAGCC, the “PBM E-score” value rises from 0.0198 to 0.104.

Compared with CAGGTTGG, ACAATGCA is higher in “PBM E-score” value: -0.195 for the first, 0.0426 for the second.

First: CCGCACGG
Second: CCGCCTTA
The “PBM E-score” value of the first is higher: -0.0701 for the first, -0.26 for the second.

Going from CGTGGTTA to TGAACAAA, the “PBM E-score” value rises from -0.154 to 0.183.

Compared with ATACCGAA, ATTCTATG is lower in “PBM E-score” value: 0.173 for the first, 0.129 for the second.

First: AGGATATG
Second: CAGTCTGG
The “PBM E-score” value of the first is higher: 0.0511 for the first, -0.273 for the second.

First: ATACGGGC
Second: CAACTCAC
The “PBM E-score” value of the first is lower: -0.126 for the first, 0.0385 for the second.

Compared with GCAGAATA, ACGAGCCC is lower in “PBM E-score” value: -0.0687 for the first, -0.213 for the second.

Going from CATCCAAG to AAGGGTAG, the “PBM E-score” value falls from -0.1 to -0.257.

First: CCTTCAAG
Second: AGCACGAT
The “PBM E-score” value of the first is lower: -0.125 for the first, -0.0209 for the second.

Compared with GCTAGTTA, ACGCACTA is lower in “PBM E-score” value: -0.0157 for the first, -0.0472 for the second.

First: CTTTGCCC
Second: AGCGCGGA
The “PBM E-score” value of the first is lower: -0.134 for the first, 0.198 for the second.

Going from ATCTATTA to AGACCCCC, the “PBM E-score” value falls from 0.26 to -0.277.

First: ATGTATGG
Second: CCCCTGAA
The “PBM E-score” value of the first is higher: -0.0921 for the first, -0.317 for the second.

First: AGACCACC
Second: ACTTGCAC
The “PBM E-score” value of the first is lower: -0.0644 for the first, -0.0271 for the second.

Compared with AGGTCGAC, AGGCGGCC is lower in “PBM E-score” value: -0.0737 for the first, -0.275 for the second.

Going from AGGGAGTA to CACGTTGC, the “PBM E-score” value falls from -0.181 to -0.187.

Compared with AAGTTCAT, GAGCGCGC is lower in “PBM E-score” value: 0.145 for the first, -0.0158 for the second.

Compared with GGACCCCC, AAACGTAT is higher in “PBM E-score” value: -0.211 for the first, 0.173 for the second.

Compared with GCGCAAAA, AAATGTGG is higher in “PBM E-score” value: 0.0966 for the first, 0.168 for the second.

Going from ACCGTAAA to ACTGGCAA, the “PBM E-score” value falls from 0.155 to -0.00447.

Going from GGCCAGAC to ATTTAGTA, the “PBM E-score” value rises from -0.0757 to 0.261.

Compared with GCGGTTGA, GGATTAAA is higher in “PBM E-score” value: 0.0176 for the first, 0.0968 for the second.

First: ATGGGGCG
Second: TCTGGCCA
The “PBM E-score” value of the first is lower: -0.22 for the first, -0.195 for the second.

Going from GCGATACC to AGAACTGA, the “PBM E-score” value rises from -0.179 to -0.0095.

Going from CCTTAGCA to ATCGACGC, the “PBM E-score” value falls from -0.096 to -0.172.

Going from AATGATAA to ACACTCCT, the “PBM E-score” value falls from 0.299 to -0.0674.

Going from AATTCCAC to GGCCAACC, the “PBM E-score” value falls from 0.115 to -0.186.

Compared with TATACGAA, AACCTCGA is lower in “PBM E-score” value: 0.194 for the first, -0.0432 for the second.

Going from CTAAGAGC to AAAAGTAT, the “PBM E-score” value rises from -0.0595 to 0.129.

Compared with AAGGAACC, ATTTGAGA is lower in “PBM E-score” value: 0.0363 for the first, 0.0267 for the second.

Going from ACGGCGTA to GTGTTCTA, the “PBM E-score” value rises from -0.0916 to 0.0717.

AGCAAGCT and AGAAGTGC are the same in “PBM E-score” value: -0.186 for the first, -0.186 for the second.

First: AATCAACC
Second: AAGACCCC
The “PBM E-score” value of the first is higher: 0.0271 for the first, -0.028 for the second.

First: AAAATACC
Second: CGAATCAC
The “PBM E-score” value of the first is higher: 0.235 for the first, 0.0698 for the second.

Going from TAATGGAA to ACTCACCA, the “PBM E-score” value falls from 0.069 to 0.0183.

First: ACGCTGAG
Second: TAGACTGA
The “PBM E-score” value of the first is lower: -0.16 for the first, 0.0479 for the second.

First: CTTCTAAA
Second: GTTCGGCA
The “PBM E-score” value of the first is higher: 0.221 for the first, -0.0011 for the second.

First: CGATCCAG
Second: CTTTTCTA
The “PBM E-score” value of the first is lower: -0.216 for the first, 0.081 for the second.

Compared with ACGATGAT, AGGTGGAT is lower in “PBM E-score” value: -0.0549 for the first, -0.0899 for the second.

Going from ATCAGTTA to AAGCGGAT, the “PBM E-score” value falls from 0.204 to 0.187.

Compared with AAGACGTA, GACTAAGA is higher in “PBM E-score” value: -0.0734 for the first, 0.129 for the second.

First: ATGAGGTA
Second: CACTCCTA
The “PBM E-score” value of the first is higher: 0.0682 for the first, -0.0496 for the second.

First: GGGTACTA
Second: AACGTTAG
The “PBM E-score” value of the first is higher: 0.00932 for the first, -0.0105 for the second.
